# Source: a collection of fitness landscapes (doi:10.1016/j.celrep.2020.107928)
# Over roughly 81,000 sequences, “one-hybrid fitness for binding NBS DNA” has its median near -0.1; the highest 2% begin near 0.36. Some of the results follow.
# B1: Caulobacter ParB omega fusion; a variant is named by its letters at X, in order, B8GW30 (parent)
# chain: MESVVVGEPGMSEGRRGLGRGLSALLGEVDAAPAQAPGEQLGGSREAPIEILQRNPDQPRRTFREEDLEDLSNSIREKGVLQPILVRPSPDTAGEYQIVAGERAWRAAQRAGLKTVPIMVRELDDLAVLEIGIIENVQRADLNVLEEALSYKVLMEKFERTQENIAQTIGKSXSHVANXMRLLXLPDEVQSYLVSGELTAXHARAIAAAADPVALAKQIIEGGLSVRETEALARKAPNLSAGKSKGGRPPRVKDTDTQALESDLSSVLGLDVSIDHRGSTGTLTITYATLEQLDDLCNRLTRGI
# Variants of: B1
# Test: one-hybrid fitness for binding NBS DNA (the Noc-binding site; scaled: cognate 1, non-cognate 0); higher = stronger binding
# Settings: with NBS DNA site
# Method in brief: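 Bacterial one-hybrid selection in E. coli USO rpoZ- hisB- pyrF- with a HIS3 reporter carrying the site 19 bp from the promoter, screening Caulobacter ParB libraries with four specificity codons randomised (NNS). Cells grew 48 hours at 37°C on M9-minus-histidine plus 0.1 mM IPTG and 5 mM 3-AT. Plasmids before and after selection were Illumina-sequenced, three replicate libraries pooled, and variants under 10 reads dropped. Fitness is the log change in variant-to-wild-type read ratio, rescaled to cognate 1, non-cognate 0.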
row,Variant,one-hybrid fitness for binding NBS DNA
1,TFAN,≤ 0.2
2,RNLN,≤ 0.2
3,MLLL,≤ 0.2
4,QEMS,≤ 0.2
5,CQSR,≤ 0.2
6,PVIA,≤ 0.2
7,PFLV,≤ 0.2
8,EVVT,≤ 0.2
9,WADL,≤ 0.2
10,QWPD,≤ 0.2
11,LVDM,≤ 0.2
12,WRLS,≤ 0.2
13,IRSQ,≤ 0.2
14,PVMQ,≤ 0.2
15,GGSW,≤ 0.2
16,LVTN,≤ 0.2
17,HNMS,≤ 0.2
18,NKNA,≤ 0.2
19,MHKM,≤ 0.2
20,GKLA,≤ 0.2
21,MSSG,≤ 0.2
22,HMTR,≤ 0.2
23,RWAP,≤ 0.2
24,PITM,≤ 0.2
25,FNRC,≤ 0.2

row,Variant,one-hybrid fitness for binding NBS DNA
1,WSRM,≤ 0.2
2,GMTC,≤ 0.2
3,WTDG,≤ 0.2
4,IFGS,≤ 0.2
5,CRAY,≤ 0.2
6,PSGG,≤ 0.2
7,QNVV,≤ 0.2
8,QQHR,0.683
9,RKSG,≤ 0.2
10,RTRY,0.38
11,VGTG,≤ 0.2
12,GPED,≤ 0.2
13,PTCC,≤ 0.2
14,SDPR,≤ 0.2
15,QMVF,≤ 0.2
16,VVRY,≤ 0.2
17,RVMQ,≤ 0.2
18,CIVC,≤ 0.2
19,QLRY,0.451
20,IYQL,≤ 0.2
21,NWYS,≤ 0.2
22,CMHF,≤ 0.2
23,LDIW,≤ 0.2
24,WDER,≤ 0.2
25,PLHF,≤ 0.2

row,Variant,one-hybrid fitness for binding NBS DNA
1,KGGA,≤ 0.2
2,VEDA,≤ 0.2
3,LHPG,≤ 0.2
4,YSQN,≤ 0.2
5,MPPM,≤ 0.2
6,GEKS,≤ 0.2
7,RDKS,≤ 0.2
8,KMQR,≤ 0.2
9,RYVM,≤ 0.2
10,QMED,≤ 0.2
11,RQKP,≤ 0.2
12,QWGT,≤ 0.2
13,ETSS,≤ 0.2
14,RRGD,≤ 0.2
15,QVVR,0.285
16,VMYL,≤ 0.2
17,PFEC,≤ 0.2
18,IQRR,0.241
19,AQIR,≤ 0.2
20,EDKV,≤ 0.2
21,ASLG,≤ 0.2
22,QPCI,≤ 0.2
23,SKPP,≤ 0.2
24,FHPP,≤ 0.2
25,HHVD,≤ 0.2

row,Variant,one-hybrid fitness for binding NBS DNA
1,RLFE,≤ 0.2
2,HCSS,≤ 0.2
3,YKKG,≤ 0.2
4,SSQE,≤ 0.2
5,EKET,≤ 0.2
6,VGGF,≤ 0.2
7,HSKS,≤ 0.2
8,AFFG,≤ 0.2
9,ITRR,0.301
10,AAKT,≤ 0.2
11,YCHA,≤ 0.2
12,DSAS,≤ 0.2
13,TLYT,≤ 0.2
14,NEVP,≤ 0.2
15,AQHR,≤ 0.2
16,REKF,≤ 0.2
17,MCTV,≤ 0.2
18,VCMR,≤ 0.2
19,LSNT,≤ 0.2
20,TLLM,≤ 0.2
21,PFDT,≤ 0.2
22,QASF,≤ 0.2
23,LVNR,≤ 0.2
24,LPQR,≤ 0.2
25,VVKQ,≤ 0.2

row,Variant,one-hybrid fitness for binding NBS DNA
1,SIKP,≤ 0.2
2,IHSN,≤ 0.2
3,WVWC,≤ 0.2
4,RTCV,≤ 0.2
5,HTWN,≤ 0.2
6,SLFC,≤ 0.2
7,RSVG,≤ 0.2
8,TTLD,≤ 0.2
9,SPIL,≤ 0.2
10,NKRS,≤ 0.2
11,FVST,≤ 0.2
12,HHSY,≤ 0.2
13,LWPF,≤ 0.2
14,TRLC,≤ 0.2
15,SGPY,≤ 0.2
16,LLEF,≤ 0.2
17,EVTW,≤ 0.2
18,HNTY,≤ 0.2
19,GIRE,≤ 0.2
20,DTLR,≤ 0.2
21,RMSM,≤ 0.2
22,HCGC,≤ 0.2
23,QACD,≤ 0.2
24,IQCR,≤ 0.2
25,VEER,≤ 0.2

row,Variant,one-hybrid fitness for binding NBS DNA
1,EGKT,≤ 0.2
2,DPLC,≤ 0.2
3,GMLK,≤ 0.2
4,HIPG,≤ 0.2
5,SVNT,≤ 0.2
6,ECST,≤ 0.2
7,RYMW,≤ 0.2
8,RRGW,≤ 0.2
9,NSSY,≤ 0.2
10,TIRK,≤ 0.2
11,GGER,≤ 0.2
12,TPNY,≤ 0.2
13,YIGD,≤ 0.2
14,QDHS,≤ 0.2
15,LAIT,≤ 0.2
16,RMHM,≤ 0.2
17,CGEE,≤ 0.2
18,WRMG,≤ 0.2
19,SGGG,≤ 0.2
20,RWVC,≤ 0.2
21,DARA,≤ 0.2
22,IYWI,≤ 0.2
23,PYRH,≤ 0.2
24,SKSL,≤ 0.2
25,RWSG,≤ 0.2

row,Variant,one-hybrid fitness for binding NBS DNA
1,RYFA,≤ 0.2
2,RQSS,0.446
3,IPPL,≤ 0.2
4,VLHL,≤ 0.2
5,DSHT,≤ 0.2
6,ACGI,≤ 0.2
7,AEFL,≤ 0.2
8,VQKR,0.293
9,SYSP,≤ 0.2
10,LMNS,≤ 0.2
11,HTQE,≤ 0.2
12,SPMF,≤ 0.2
13,NSYN,≤ 0.2
14,FTRC,≤ 0.2
15,RAIY,≤ 0.2
16,PRYW,≤ 0.2
17,AYML,≤ 0.2
18,LWVW,≤ 0.2
19,HNPS,≤ 0.2
20,KIPY,≤ 0.2
21,RAWR,0.248
22,YMHR,≤ 0.2
23,RKTI,≤ 0.2
24,SNHW,≤ 0.2
25,SYTC,≤ 0.2

row,Variant,one-hybrid fitness for binding NBS DNA
1,MMMF,≤ 0.2
2,RYVS,0.218
3,WWSS,≤ 0.2
4,SFRH,≤ 0.2
5,TEAN,≤ 0.2
6,VVSF,≤ 0.2
7,RRDN,≤ 0.2
8,WIWV,≤ 0.2
9,RMHH,≤ 0.2
10,QPGK,≤ 0.2
11,QAIS,≤ 0.2
12,TVIR,≤ 0.2
13,GMEL,≤ 0.2
14,INNR,≤ 0.2
15,HKRL,≤ 0.2
16,PGSD,≤ 0.2
17,EPTG,≤ 0.2
18,GLTI,≤ 0.2
19,LHNP,≤ 0.2
20,GQDQ,≤ 0.2
